{"source": "PubChem BioAssay AID686978", "about": "(National Center for Advancing Translational Sciences (NCATS), 2013)", "note": "Several values for one entry are separate records, joined by “and”; a condition that tells them apart may be missing. Identical values can stand only once. The whole screen tested about 420,000 compounds, of which about 64,000 (15%) were called active. Inconclusive means that the source gave no clear call. Such entries were picked first, then a sample of the others. Calls follow the shape of the dose curve; as a rule, active = well fitted inhibition curve with a large enough effect; inconclusive = small, poorly fitted or top-dose-only effect; inactive = flat fitted curve, though single readings scatter. No potency is given beside an inconclusive call; the fits are too rough. % is scaled to controls: 0 for no effect and ±100 for the full control effect; potency is read from the fitted curve at half-maximal effect; tags tell the direction and shape of the fitted curve.", "data": [{"experiment": "qHTS for Inhibitors of human tyrosyl-DNA phosphodiesterase 1 (TDP1): qHTS in cells in absence of CPT; also: nearly all actives have a fitted effect of over 55% in size", "conditions": "DT40 Tdp1-/- hTDP1 cells, no CPT, ATP luminescence, 48 h; activity change, negative = growth inhibition: at 46.2 µM (top of the series) unless noted", "how_it_was_run": "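Seeded 400 DT40-hTDP1 cells/well (vehicle DMSO, no 20 nM CPT); pinned compounds; ≥48 hr at 37 °C; CellTiter-Glo luminescence as viability measure.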", "values": [{"smiles": "O=c1nc2s/c(=C\\c3ccc(-c4ccccc4[N+](=O)[O-])o3)c(=O)n2nc1-c1ccccc1", "Potency": "inactive"}, {"smiles": "N#Cc1ccc(CSc2nnc(Nc3ccccc3)s2)cc1", "Potency": "inconclusive [inhibitor, single point]"}, {"smiles": "COc1ccc(S(=O)(=O)N/N=C(/C)c2ccc(C)o2)cc1", "Potency": "inactive"}, {"smiles": "C[C@H](CO)N1C[C@H](C)[C@@H](CN(C)S(=O)(=O)c2ccc(F)cc2)Oc2c(NC(=O)Nc3ccc(C(F)(F)F)cc3)cccc2C1=O", "Potency": "inconclusive [inhibitor, single point]"}, {"smiles": "Cc1nnc(NC(=O)c2ccc(S(=O)(=O)N(C)Cc3ccccc3)cc2)o1", "Potency": "active: 23.1 µM"}, {"smiles": "CCOC(=O)c1oc2ccccc2c1NC(=O)c1ccc(S(=O)(=O)N2CCCC2)cc1", "Potency": "inactive"}, {"smiles": "CCOc1ccccc1NC(=S)Nn1cnnc1", "Potency": "inconclusive [inhibitor, single point]"}, {"smiles": "O=C(NCc1nc2ccccc2[nH]1)C1=C[C@H](c2coc3ccccc3c2=O)C[C@H](OCCCCO)O1", "Potency": "inconclusive [inhibitor, partial curve]"}, {"smiles": "CC(C)CNC(=O)C(=O)NC1CCCC1", "Potency": "inactive"}, {"smiles": "Cc1ccccc1OC(C)C(=O)NCCC1=CCCCC1", "note": "(stereo not drawn)", "Potency": "inconclusive [inhibitor, single point]"}, {"smiles": "CC(C)(C)NC(=O)NC(=O)COC(=O)COc1ccc(Cl)cc1Cl", "Potency": "inconclusive [inhibitor, single point]"}, {"smiles": "Cc1ccc(NC(=O)CCC(=O)N/N=C/c2cc([N+](=O)[O-])ccc2O)cc1", "Potency": "inconclusive [inhibitor, single point]"}, {"smiles": "Cc1cc(C)cc(N2C(N)=NC(N)=NC2c2cccc(Cl)c2)c1", "note": "(stereo not drawn)", "Potency": "active: 5.17 µM"}, {"smiles": "O=C1CC(=O)OC(c2ccc([N+](=O)[O-])cc2)O1", "Potency": "active: 2.31 µM"}, {"smiles": "O=C(NCc1cccs1)C(=O)NCC(c1ccco1)N1CCN(c2ccc(F)cc2)CC1", "note": "(stereo not drawn)", "Potency": "active: 23.1 µM"}, {"smiles": "COCCCn1c(-c2ccccc2)nc2ccccc2c1=O", "activity change, negative = growth inhibition": "inconclusive: -36.8% [inhibitor]"}, {"smiles": "CC1(C)CCC(C)(C)c2cc(NC(=O)c3ccc(C(=O)O)cc3)ccc21", "Potency": "inconclusive [inhibitor, partial curve, poor fit]"}, {"smiles": "COc1ccc2c(c1)[nH]c1c(=O)n(CCC3=CCCCC3)cnc12", "Potency": "active: 23.1 µM"}, {"smiles": "CN(C)c1ccc(C(=S)N2CCNCC2)cc1", "activity change, negative = growth inhibition": "inconclusive: -38.7% [inhibitor]"}, {"smiles": "CCN(CC)CCNCc1cc(Br)ccc1OCC(=O)NCc1ccccc1", "Potency": "inactive"}, {"smiles": "N#CC(=C1Nc2ccccc2N1)S(=O)(=O)c1ccccc1", "Potency": "inconclusive [inhibitor, single point]"}, {"smiles": "Cc1cc(C(=O)Nc2sc3c(c2C#N)CCC(C)C3)no1", "note": "(stereo not drawn)", "Potency": "inconclusive [inhibitor, single point]"}, {"smiles": "O=C(O)C1C2CCC(O2)C1C(=O)Nc1cccc(Cl)c1", "note": "(stereo not drawn)", "Potency": "inactive"}, {"smiles": "Cc1ccccc1CNc1ncnc2cc(Cl)ccc12", "Potency": "inconclusive [inhibitor, single point]"}, {"smiles": "COc1ccc(CCNc2oc(COc3ccccc3F)nc2C#N)cc1", "Potency": "inconclusive [inhibitor, single point]"}, {"smiles": "COc1ccc(N(C(=O)c2cccnc2)S(=O)(=O)c2ccccc2)cc1", "Potency": "inconclusive [inhibitor, partial curve]"}, {"smiles": "CCC(CC)NC(=O)c1nn(Cc2ccccc2)c(=O)c2ccccc12", "Potency": "inconclusive [inhibitor, single point]"}, {"smiles": "Cn1nnc(-c2ccc(OCc3ccccc3F)cc2)n1", "activity change, negative = growth inhibition": "inconclusive: -35.7% [inhibitor]"}, {"smiles": "Oc1ccc[n+](/C=C\\c2ccccc2)c1", "Potency": "inconclusive [inhibitor, single point]"}, {"smiles": "c1cc(N2CCCC2)ccc1C(c1nnnn1C1CCCCC1)N1CCOCC1", "note": "(stereo not drawn)", "Potency": "inconclusive [inhibitor, single point]"}, {"smiles": "CCc1ccc(C2CC(=O)N3CN(c4ccccc4)CSC3=C2C#N)cc1", "note": "(stereo not drawn)", "Potency": "inconclusive [inhibitor, single point]"}, {"smiles": "C=CCN=C(NC#N)SCC(=O)NC(C)(C)C", "Potency": "inactive"}, {"smiles": "CN1CCN(c2ncnc3ccc(-c4cccnc4)cc23)CC1", "Potency": "inconclusive [inhibitor, single point]"}, {"smiles": "Cc1ccc(S(=O)(=O)N2CCN(Cc3nc4ccc(C)cc4o3)CC2)c(C)c1", "Potency": "inconclusive [inhibitor, single point]"}, {"smiles": "COc1ccc(NC(=S)NCCC(c2ccccc2)c2ccccc2)c(OC)c1", "Potency": "active: 15.8 µM"}, {"smiles": "Cc1nc2ccc(S(=O)(=O)NCC(=O)Nc3ccc(F)cc3F)cc2s1", "Potency": "inactive"}, {"smiles": "Cc1ccccc1OCCn1c(CCNC(=O)C2CCCCC2)nc2ccccc21", "Potency": "active: 20.6 µM and active: 17.8 µM"}, {"smiles": "O=c1c2ccccc2oc2c1oc1ccccc12", "Potency": "inconclusive [inhibitor, single point]"}, {"smiles": "COc1ccc(CNC(=O)c2c(C)nc3ccccn23)cc1", "Potency": "inconclusive [inhibitor, partial curve]"}, {"smiles": "CCOc1ccc(CCN2C(=O)C(=O)N([C@@H](CC(C)C)CN3CCC[C@@H]3CN3C(=O)C(=O)NC[C@@H]3Cc3ccccc3)C[C@@H]2Cc2ccc(O)cc2)cc1", "Potency": "inconclusive [inhibitor, single point]"}, {"smiles": "CCCC(=O)NC(=S)Nc1ccc(S(=O)(=O)Nc2ccc(OCC)cc2)cc1", "Potency": "inconclusive [inhibitor, single point]"}, {"smiles": "O=C(NCC1CCCO1)c1ccc(COc2ccccc2Br)cc1", "note": "(stereo not drawn)", "Potency": "inconclusive [inhibitor, single point]"}, {"smiles": "O=C(NCCc1c[nH]c2ccccc12)/C(=C\\c1cccnc1)NC(=O)c1ccccc1Br", "Potency": "inconclusive [inhibitor, partial curve]"}, {"smiles": "CCOC(=O)c1c(C)[nH]c(C)c1S(=O)(=O)N(C)CC(=O)Nc1ccc(C)cc1Br", "Potency": "inconclusive [inhibitor, single point]"}, {"smiles": "NC(=O)CSc1nc2ccccc2n1Cc1ccccc1F", "Potency": "inconclusive [inhibitor, single point]"}, {"smiles": "COc1cc(C(=O)Oc2cc(C)cc(C)c2)cc(OC)c1OC", "Potency": "inactive"}, {"smiles": "CC(C)(C)Cc1c(-c2cccc(Br)c2)nc2ccc(Cl)cn12", "Potency": "inconclusive [inhibitor, single point]"}, {"smiles": "CC1NC(C)(C)Cc2c1ccc1ccccc21", "note": "(stereo not drawn)", "Potency": "inactive"}, {"smiles": "CC(C)(C)C(=O)Nc1ccccc1C(=O)OCc1cc(=O)n2ccsc2n1", "Potency": "inactive"}, {"smiles": "CCc1ccc(C2=CC(c3c(F)cccc3Cl)n3c(nc4ccccc43)N2)cc1", "note": "(stereo not drawn)", "Potency": "active: 7.31 µM"}, {"smiles": "N#Cc1ncccc1CCc1cccc(Cl)c1", "Potency": "inactive"}, {"smiles": "CCCCCCC(C)n1cc(C(C)=O)c(=O)n(C)c1=O", "note": "(stereo not drawn)", "Potency": "inconclusive [inhibitor, single point]"}, {"smiles": "O=C(NCc1cccnc1)Nc1ccc(Cl)c(Cl)c1", "Potency": "inconclusive [inhibitor, single point]"}, {"smiles": "Cc1cc(C)cc(NC(=O)CSc2nc3nccnc3c(=O)n2CCc2c[nH]c3ccccc23)c1", "Potency": "active: 7.31 µM"}, {"smiles": "O=C(CSc1nnc(-c2ccco2)o1)c1ccc[nH]1", "Potency": "inconclusive [inhibitor, partial curve]"}, {"smiles": "Cc1ccc2c(Cl)c(C(=O)NCCCN3CCOCC3)sc2c1", "Potency": "inactive"}, {"smiles": "Cc1ccc(C(c2nnnn2Cc2ccccc2)N2CCN(Cc3ccccc3)CC2)cc1", "note": "(stereo not drawn)", "Potency": "active: 16.4 µM"}, {"smiles": "CC(C)CCn1c(/C=C/c2ccccc2)nc2ccccc21", "Potency": "active: 11.6 µM"}, {"smiles": "CN1C(=O)/C(=C/c2ccccc2OCc2ccc(F)cc2)N(C)C1=S", "Potency": "inconclusive [inhibitor, single point]"}, {"smiles": "Cc1ccc(-c2cn3ccc(C)cc3n2)cc1", "Potency": "inconclusive [inhibitor, single point]"}, {"smiles": "O=C(c1ccc(Cl)cc1)N1CCN(C(=O)C2CCCCC2)CC1", "Potency": "inactive"}, {"smiles": "COc1ccc(-c2cc3c(c4c2ccn4C)C2CCC3C2)cc1", "note": "(stereo not drawn)", "Potency": "inconclusive [inhibitor, single point]"}, {"smiles": "COc1ccc(N=N/C(=C\\O)C(=O)c2cccs2)cc1", "Potency": "inconclusive [inhibitor, partial curve]"}, {"smiles": "COc1ccccc1CNc1ccc2nnc(CCNC(=O)c3ccccc3)n2n1", "activity change, negative = growth inhibition": "inconclusive: -30.7% [inhibitor]"}, {"smiles": "O=C(N/N=C/c1cccc(O)c1)c1ccc(-n2cnnn2)cc1", "activity change, negative = growth inhibition": "inconclusive: -32.5% [inhibitor]"}, {"smiles": "Oc1c(C(c2ccco2)N2CCN(C(c3ccccc3)c3ccccc3)CC2)sc2ncnn12", "note": "(stereo not drawn)", "Potency": "active: 20.6 µM"}, {"smiles": "O=C(Nc1cccc(Cl)c1)N(Cc1nc2ccccc2c(=O)[nH]1)C1CCCC1", "activity change, negative = growth inhibition": "inconclusive: -31.4% [inhibitor]"}, {"smiles": "O=C(NNC(=O)c1cc(C(F)(F)F)cc(C(F)(F)F)c1)c1ccc(Cl)cc1", "Potency": "inconclusive [inhibitor, partial curve]"}, {"smiles": "O=C(Nc1ccccc1C(F)(F)F)N1CCC(n2c(=O)[nH]c3ccccc32)CC1", "Potency": "inactive"}, {"smiles": "COc1cc(C(=O)Nc2nc(-c3ccc(C)cc3)cs2)ccc1OCC(=O)N1CCOCC1", "Potency": "active: 20.6 µM"}, {"smiles": "O=C(Nc1ccccc1Cl)N1CCSc2ccccc21", "Potency": "inconclusive [inhibitor, single point]"}, {"smiles": "CCOC(=O)c1ccc2[nH]c(C)c(C)c2c1", "Potency": "inconclusive [inhibitor, single point]"}, {"smiles": "N#Cc1nc(COc2ccc(Cl)cc2)oc1NCc1ccc2c(c1)OCO2", "Potency": "inconclusive [inhibitor, single point]"}]}]}
